Drawing on the antibiotic and cytotoxicity screens of Wong et al. (2023), this text covers cytotoxicity call and growth inhibition call for 23 compounds.

The other results are listed elsewhere or left out.

One assay concerns HSkMC. Briefly: cytotoxicity call (relative viability < 0.9). To be noted: 10 µM.
In another assay the test system is HepG2. In words: cytotoxicity call (relative viability < 0.9). Conditions: 10 µM.
The test system of a further assay is S. aureus RN4220. In words: growth inhibition call (relative growth <= 0.2). Conditions: 50 µM.

Turning to `CC(C)CC#Cc1ccc2c(c1)O[C@H](CN(C)C(=O)Cc1ccccn1)[C@H](C)CN([C@@H](C)CO)S2(=O)=O`, the cytotoxicity call in the assay on HSkMC and in the assay on HepG2 was “inactive” throughout. The growth inhibition call in the assay on S. aureus RN4220 is “inactive”.

For `C[C@H]1CN([C@@H](C)CO)C(=O)Cc2cc(NC(=O)Nc3cccc4c3CCCC4)ccc2O[C@H]1CN(C)S(=O)(=O)c1ccc(Cl)cc1`, the cytotoxicity call in the assay on HSkMC and in the assay on HepG2 was “inactive” throughout. The growth inhibition call with S. aureus RN4220 is “inactive”.

In the case of `C[C@H]1CN([C@@H](C)CO)C(=O)c2cccc(N(C)C)c2O[C@@H]1CN(C)S(=O)(=O)c1ccc(Cl)cc1`, the cytotoxicity call with HSkMC and in the assay with HepG2 was “inactive” in each case. Also, the growth inhibition call with S. aureus RN4220 was “inactive”.

Turning to `C[C@@H]1CCCCO[C@@H](CN(C)S(=O)(=O)c2ccc(F)cc2)[C@@H](C)CN([C@@H](C)CO)C(=O)c2cc(NC(=O)NC3CCCCC3)ccc2O1`, the cytotoxicity call with HSkMC and in the assay on HepG2 was “inactive” throughout. For the same compound, in the assay with S. aureus RN4220, the growth inhibition call is “inactive”.

Consider `C[C@H](NC(=O)C(C)(C)Oc1ccc(C(F)(F)F)cn1)[C@@H](Cc1ccc(Cl)cc1)c1cccc(C#N)c1`, for which the cytotoxicity call in the assay with HSkMC and in the assay on HepG2 was “inactive” in each case. Besides, the growth inhibition call in the assay with S. aureus RN4220 is “inactive”.

Take `CC(C)NC(=O)N(C)C[C@H]1Oc2ccc(NS(=O)(=O)c3ccc(Cl)cc3)cc2C(=O)N([C@H](C)CO)C[C@H]1C`: the cytotoxicity call in the assay on HSkMC and in the assay with HepG2 was “inactive” in each case. Besides, the growth inhibition call in the assay with S. aureus RN4220 is “inactive”.

As for `C[C@@H]1CN([C@@H](C)CO)C(=O)c2cc(NS(=O)(=O)c3cn(C)cn3)ccc2O[C@@H](C)CCCCO[C@H]1CN(C)S(=O)(=O)c1cn(C)cn1`, the cytotoxicity call in the assay on HSkMC and in the assay with HepG2 was “inactive” throughout. The growth inhibition call in the assay with S. aureus RN4220 was “inactive”.

As for `C[C@@H]1CN([C@@H](C)CO)C(=O)c2cc(NS(C)(=O)=O)ccc2O[C@H]1CN(C)Cc1ccc2c(c1)OCO2`, the cytotoxicity call in the assay on HSkMC and in the assay with HepG2 was “inactive” each time. Further, the growth inhibition call with S. aureus RN4220 is “inactive”.

With `C[C@@H]1CN([C@H](C)CO)S(=O)(=O)c2ccc(C#CC(C)(C)O)cc2O[C@@H]1CN(C)C(=O)C1CCCCC1`, the cytotoxicity call in the assay with HSkMC and in the assay on HepG2 was “inactive” each time. Further, in the assay with S. aureus RN4220, the growth inhibition call was “inactive”.

As for `Cc1noc(C)c1S(=O)(=O)Nc1cccc2c1O[C@@H](CN(C)S(=O)(=O)c1ccc(F)cc1)[C@@H](C)CN([C@@H](C)CO)C2=O`, the cytotoxicity call in the assay on HSkMC and with HepG2 was “inactive” each time. Also, the growth inhibition call in the assay with S. aureus RN4220 is “inactive”.

Consider `CN[C@@H]1[C@@H](C)O[C@@H](O[C@H]2[C@H](C)O[C@@H](O[C@@H]3/C(C)=C/C[C@@H]4C[C@@H](C[C@]5(C=C[C@H](C)[C@@H](C(C)C)O5)O4)OC(=O)[C@@H]4C=C(C)[C@@H](O)[C@H]5OC/C(=C\C=C\[C@@H]3C)[C@]54O)C[C@@H]2OC)C[C@H]1OC`, for which the cytotoxicity call in the assay on HSkMC and in the assay with HepG2 was “active” throughout. In addition, the growth inhibition call in the assay on S. aureus RN4220 was “active”.

For the compound `C[C@@H]1CCCCO[C@@H](CN(C)Cc2ccc3c(c2)OCO3)[C@@H](C)CN([C@H](C)CO)C(=O)c2cc(NC(=O)C3CCCCC3)ccc2O1`, the cytotoxicity call in the assay on HSkMC and in the assay with HepG2 was “inactive” throughout. In the assay on S. aureus RN4220, the growth inhibition call was “inactive”.

`O=C1CNC(=O)N1CC1CCNCC1`: the cytotoxicity call in the assay on HSkMC and in the assay with HepG2 was “inactive” throughout. The growth inhibition call in the assay with S. aureus RN4220 was “inactive”.

In the case of `O=C(C[C@H]1C[C@H]2c3cc(NS(=O)(=O)c4ccc(F)cc4)ccc3O[C@H]2[C@H](CO)O1)N1CCCCC1`, the cytotoxicity call in the assay on HSkMC and in the assay with HepG2 was “inactive” throughout. For the same compound, the growth inhibition call with S. aureus RN4220 was “inactive”.

On to `C[C@H]1CN([C@@H](C)CO)C(=O)c2cccc(NS(=O)(=O)c3ccc(F)cc3)c2O[C@H]1CN(C)Cc1ccc(Oc2ccccc2)cc1`, for which the cytotoxicity call in the assay with HSkMC and in the assay on HepG2 was “inactive” in each case. The growth inhibition call in the assay on S. aureus RN4220 is “inactive”.

As to `C[C@@H]1CCCCO[C@@H](CN(C)CC2CC2)[C@@H](C)CN([C@H](C)CO)C(=O)c2cc(NC(=O)Nc3ccccc3)ccc2O1`, the cytotoxicity call with HSkMC and with HepG2 was “inactive” each time. In addition, in the assay with S. aureus RN4220, the growth inhibition call was “inactive”.

Consider `O=C(NO)c1ccc(C(=O)N/N=C/[C@H](O)[C@@H](O)[C@@H](O)[C@H](O)C(=O)O)cc1`, for which the cytotoxicity call with HSkMC and with HepG2 was “inactive” in each case. Further, the growth inhibition call with S. aureus RN4220 is “inactive”.

For `COc1ccc(CN(C)C[C@H]2OCCCC[C@H](C)Oc3ccc(NC(=O)Nc4c(C)noc4C)cc3C(=O)N([C@H](C)CO)C[C@@H]2C)cc1`, the cytotoxicity call in the assay with HSkMC and in the assay on HepG2 was “inactive” in each case. The growth inhibition call with S. aureus RN4220 is “inactive”.

Regarding `CCS(=O)(=O)Nc1ccc2c(c1)C(=O)N(C)[C@H]1CC[C@@H](CC(=O)NCc3ccc(OC)cc3)O[C@H]1CO2`, the cytotoxicity call in the assay with HSkMC and with HepG2 was “inactive” each time. The growth inhibition call with S. aureus RN4220 was “inactive”.

With `Cc1cc(C(=O)Nc2cccc3c2O[C@@H](CN(C)S(=O)(=O)c2ccc(F)cc2)[C@@H](C)CN([C@@H](C)CO)C3=O)n(C)n1`, the cytotoxicity call with HSkMC and with HepG2 was “inactive” in each case. Further, the growth inhibition call in the assay on S. aureus RN4220 is “inactive”.

As to `Cc1noc(C)c1NC(=O)N(C)C[C@@H]1OCCCC[C@H](C)Oc2ccc(NC(=O)NC3CCCCC3)cc2C(=O)N([C@H](C)CO)C[C@H]1C`, the cytotoxicity call in the assay with HSkMC and in the assay on HepG2 was “inactive” in each case. The growth inhibition call in the assay with S. aureus RN4220 is “inactive”.

In the case of `c1ccc(-n2ncc3c2ncn2nnnc32)cc1`, the cytotoxicity call in the assay on HSkMC (human skeletal muscle cells) and with HepG2 was “inactive” in each case. Further, the growth inhibition call in the assay with S. aureus RN4220 was “inactive”.

Consider `COc1ccc(NC(=O)Nc2ccc3c(c2)C(=O)N([C@H](C)CO)C[C@H](C)[C@H](CN(C)S(=O)(=O)c2cccs2)OCCCC[C@H](C)O3)cc1`, for which the cytotoxicity call with HSkMC and in the assay with HepG2 was “inactive” throughout. In the assay with S. aureus RN4220, the growth inhibition call is “inactive”.
